This is one part of the list.
T1: UNK ZnF1-3 (human, UniProt Q9C0B0 31-174)
T1 sequence: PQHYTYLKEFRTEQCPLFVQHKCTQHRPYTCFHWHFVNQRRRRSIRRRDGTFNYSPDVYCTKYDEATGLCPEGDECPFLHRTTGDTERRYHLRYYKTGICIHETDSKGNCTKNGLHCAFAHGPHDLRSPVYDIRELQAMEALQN

B1: chr11:54683702:54683703:+_ENSMUSG00000020267_ENSMUST00000020504|mus_mus|motif|central (ssRNA)
RNA: GGGAGUUCUACAGUCCGACGAUCACAUUUCUUGCCAACAAUCAUUAAAUGUCCUAGAAGACUUUCAUCAUCAUCAUCUGCGGCAGAAAUCUGGGAUAUAUGCUUCUUGGGUAUCACCAGAAAGUGUGUUGGUGCUUGAGGGGACAACAGAGGAUUGAGCAUCA
B2: chr4:76721835:76721836:+_ENSG00000138768_ENST00000264904|hu_mus|hu_hu_hu_mus_True|38_98 (ssRNA)
RNA: GGGAGUUCUACAGUCCGACGAUCGUUUGGCUGGGGUUCUGAGAUGCCUCUGGAAUAUAACUCAUGUUUGCUAAUAAAUCCUAGUUUCUCUAUGAAAUCUCUUUGCCCAAUCCUCUUCUCUAUUAGUUGCUUUAGUUUCUCUUUCAACAGAGGAUUGAGCAUCA
B3: chr10:1042047:1042048:+_ENSG00000107937_ENST00000545048|hu_hu|FALSE|FALSE (ssRNA)
RNA: GGGAGUUCUACAGUCCGACGAUCGUAGAGAGAGUCGCCAUACUUCAUCAGUCGCACAUAAUCUUUAGCAACAUUGUCCACUAAAUUUUUGGCAAUAUUUAUUUGCCCCAGAGCCAACUUGUAAUGAUCCUUGUCGUAGAGAAUCAACAGAGGAUUGAGCAUCA
B4: chr9:95013113:95013114:-_ENSG00000196305_ENST00000443024|hu_hu|hu_hu_hu_mus_False|18_58 (ssRNA)
RNA: GGGAGUUCUACAGUCCGACGAUCCUCAGUCAGAAAGGGCGUGUAAGGGGCCAUCAGUCUGCACAGAGAAAGCAGGACACUAAACAAUGUCUCCAGAGCCAUGACACAGUCUUCCACCCCAUUUUCACCCUUUAACCUCCUCCUCAACAGAGGAUUGAGCAUCA
B5: chr18:52893488:52893489:-_ENSG00000196628_ENST00000354452|hu_hu|hu_hu_hu_mus_True|1_18 (ssRNA)
RNA: GGGAGUUCUACAGUCCGACGAUCUAUUUAGACCAUUUCCGCGGAGUUAUGGCAUUUACUCAGUGCUGAUAGGUGGAAAAACUACUUCAACAGGGAUUUUUUUUUUCCUUAAUACAUGCCAAGAAUUUGUGGCUGUCAAAAAUACAACAGAGGAUUGAGCAUCA
B6: chr2:216981417:216981418:+_ENSG00000079246_ENST00000392132|hu_hu|hu_hu_hu_mus_True|18_88 (ssRNA)
RNA: GGGAGUUCUACAGUCCGACGAUCCUGAUACUGGUCCUUGCCAGCAAGGGGAUUGUCAGUGCCAUCUGUGCCAUAGAGGACUAACGCAAUCUCAUCUUUGCUCUCCGAAAAUACCUGUCGCUGUACAAACAUAGUCAUCACUUUCAACAGAGGAUUGAGCAUCA
B7: chr11:105132459:105132460:+_ENSMUSG00000020694_ENSMUST00000015107|mus_hu|FALSE|FALSE (ssRNA)
RNA: GGGAGUUCUACAGUCCGACGAUCGAUCUUCGAAAGACCAAAAUCUGUAAUUUUUAUCUCUCCACACGCUGUACCAUUUACUAAAAGAAUAUUACCUGGUUUGAGGUCAUAGUGUAUGAUGGGAGGUUUUAUUUCAUUUAAGUACAACAGAGGAUUGAGCAUCA
B8: 75306597_75306959_2307_CDS_ENSMUSG00000020850_ENSMUST00000018449|mouse|control|control (ssRNA)
RNA: GGGAGUUCUACAGUCCGACGAUCCAUCAUGUCCAGAAUGUCGUGCAUCACAGCAGCCCUGAGCUCCAGGUCAAAGUGCGACUCCACCCGCUGCUUCGUUACUGUCUUUGCCACCCCCUUUGAGUGACGGCCUUCAAACUGUCGCAACAGAGGAUUGAGCAUCA
B9: chr6:40197388:40197389:+_ENSMUSG00000057716_ENSMUST00000061740|mus_mus|mus_mus_mus_hu_False|28_98 (ssRNA)
RNA: GGGAGUUCUACAGUCCGACGAUCGAGACACUGGGGUGGAUGGCACCCACCUCUGUUUGGGUGCUAGCCACUAAGACUGUUAUUUUGGGAUUCAUGGCCUUGAAUAUCAAGAGGAAAAGGAAGAGGAUGGAAAGAGUCAAGAGUCAACAGAGGAUUGAGCAUCA
B10: 28422993_28423113_5004_3pUTR_ENSG00000104290_ENST00000240093|human|control|control (ssRNA)
RNA: GGGAGUUCUACAGUCCGACGAUCCAUAGUGAUGUUCACUUAACUGUCUAUACUUGGCCCACUUGUAAAAGAAAACCAAUUAACAUUUUGGCAGUUGAUAAUAUAAUGCAGAUGGCAAUGGAUGACAACAUCUUCGAGCCCAAACAACAGAGGAUUGAGCAUCA
B11: chr5:44142225:44142226:-_ENSMUSG00000039753_ENSMUST00000047857|mus_hu|FALSE|FALSE (ssRNA)
RNA: GGGAGUUCUACAGUCCGACGAUCGCCUGCACCAGUUAUAGUAAGACAACCAGAGAGAUUAAGGUGCUCCAAAUAAGGCAGCCCUCCUCCCAGAGUCAAAACCCUGAGACCAUGGUCUGUGAUCUGAUAACAUCCAGAUAAACUCAACAGAGGAUUGAGCAUCA
B12: chr7:44244176:44244177:+_ENSG00000106636_ENST00000223369|hu_mus|hu_hu_hu_mus_False|88_108 (ssRNA)
RNA: GGGAGUUCUACAGUCCGACGAUCACUAUCAUUCCGGACGUAGACAUGGCACAGAUACUCUUGUUCUUUGACAGAAGCUCUGCUGCCUUUCCCCGAGCGUUCCACAAUCAGUUGACUUGUAAAGGUCAUGAAUUCCUGCACACUCAACAGAGGAUUGAGCAUCA
B13: chr17:62495851:62495852:-_ENSG00000108654_ENST00000581693|hu_mus|motif|central (ssRNA)
RNA: GGGAGUUCUACAGUCCGACGAUCUCACUGUACAGUUACUUUUGUGAAAACACUGCCUGCAUUUUCUAGUACAAAAAAAACCGGAAAAUUGUUUCAGGAAUGUAGAGAAAUAUCCAACUUAAAUAGCGAAAAAAGUGCACCAUACAACAGAGGAUUGAGCAUCA
B14: chr3:41266445:41266446:+_ENSG00000168036_ENST00000349496|perfect_dup|motif|central (ssRNA)
RNA: GGGAGUUCUACAGUCCGACGAUCCAUGGCAGCUCGGACCCUCUGAGCCCUAGUCAUUGCAUACUGCCCGUCAAUAUCAGCGGCUUGCUCUUGCGUGAAGGACUGGGAAAAGCCUUGCUCCCAUUCAUAAAGGACUUGGGAGGUCAACAGAGGAUUGAGCAUCA
B15: chr2:163839756:163839757:+_ENSMUSG00000018326_ENSMUST00000018470|mus_mus|FALSE|FALSE (ssRNA)
RNA: GGGAGUUCUACAGUCCGACGAUCUUUCAUUUUUAAGUAGAACACUUUGCUUUCUGCCUGGGUGGCAUUGAGAAUGAGAUAUUUGUCCAACAGCUCCAGCACAUCGUUGCAGAUGUCCUGCAGCUCCGCCUCGAUCUUCUCACGCAACAGAGGAUUGAGCAUCA
B16: chr12:493273:493274:-_ENSG00000073614_ENST00000399788|hu_hu|FALSE|FALSE (ssRNA)
RNA: GGGAGUUCUACAGUCCGACGAUCUUUUCUCUCUACCACAGGGAUCUUCAGAGUAGAUCCUUGAAGUUCCCAAAAUUUUGCUAGUUGAUCCAAGAAAUCCAAUCUCACUCUGGUCAUUGCCUCAAGUUCAUUCAGGCGCUGGACCAACAGAGGAUUGAGCAUCA
B17: 110765465_110765585_907_CDS_ENSG00000174437_ENST00000539276|human|control|control (ssRNA)
RNA: GGGAGUUCUACAGUCCGACGAUCCCCUCCAUGAACCGGGUCAUUGAAGUGCCCAAUAUUUAUGAUCCAGACUGCAAUGCAAAUAAGGGAGAUGACUUUGGAAAGCUGUUCCCCAAAUUCAUCUAGUUUUUGCUGAAGGGGUGUCAACAGAGGAUUGAGCAUCA
B18: chr4:99801976:99801977:-_ENSG00000151247_ENST00000280892|hu_mus|FALSE|FALSE (ssRNA)
RNA: GGGAGUUCUACAGUCCGACGAUCCACAUCUGCGGGUUCUGGGGUGACGUAUACUGUAAUUCUUUGAUUGGGAUAGUGGACACACUAGCAAAAAUUGGGGGUGGGGGAGGAGAAUGAACACAGAAGUACAAGACAAAGGCGAAUCAACAGAGGAUUGAGCAUCA
B19: chr7:56126341:56126342:+_ENSG00000146731_ENST00000540286|hu_mus|hu_hu_hu_mus_True|8_98 (ssRNA)
RNA: GGGAGUUCUACAGUCCGACGAUCCAUGUUUCUCCUCUUAGCUCUGCGCAGAGCUACGAUCCCUUCUUUCGCAAGGGCAUCUAAGGAAAAGGGGUCAAUCCCCUUUUGAUUAAUAACGACAAAUCCUUUAUCUGAAUCACCACACAACAGAGGAUUGAGCAUCA
B20: 36442829_36447374_875_3pUTR_ENSG00000112078_ENST00000373731|human|control|control (ssRNA)
RNA: GGGAGUUCUACAGUCCGACGAUCAAUAAUCCAGCACUGUGCGAAAUACAGUUGCACUGAUGCCUUCAGCAAUCUCAUACUCUCCCUUCUCAUUGGGCCGAGUGAAGUUGUACUCUCUUCCUGGUCCAAACAUCCUUCCCAGCACAACAGAGGAUUGAGCAUCA
B21: 24995746_24995866_2247_CDS_ENSG00000133226_ENST00000323848|human|control|control (ssRNA)
RNA: GGGAGUUCUACAGUCCGACGAUCAGACCCUUUCCUAUGCUUGGAUGAUAAUGAAGGUGAACGUCUCUUGGUGACUGGGGAGCUUCUUUGUUUGGGAGGUGGAGAAUGGGAGACCCGCCGCUUUGGUGGUGGAGAUGGUGAUGCCAACAGAGGAUUGAGCAUCA
B22: chr10:94110891:94110892:+_ENSG00000198060_ENST00000358935|hu_hu|FALSE|FALSE (ssRNA)
RNA: GGGAGUUCUACAGUCCGACGAUCUUCUGGAUAAUUCAGAAUUUUGCGGUGUGCCUGUCGUAAAUAUUGCUGCUGUUUGAAGUAAACUUUAAAUGCUCCUUUUAUGGCAACAAACGCAAUUCCACCCAAGAUUGUCCUUUGUAACAACAGAGGAUUGAGCAUCA

target: T1, UNK ZnF1-3; experiment: nsRBNS (natural sequence RNA bind-n-seq); RBNS binding buffer (assumed for nsRBNS): 25 mM Tris pH 7.5, 150 mM KCl, 3 mM MgCl2, 0.01% Triton X-100, 500 ug/ml BSA, 20 U/ml SUPERase-In, 4 C; UNK is unkempt and MSI1 is Musashi-1; names of the RNAs are library labels; protein concentration not given here; high values mean tight binding

| Binder | binding signal |
| --- | --- |
| B1 | 1.46 enrichment R |
| B2 | 0.455 enrichment R |
| B3 | 1.34 enrichment R |
| B4 | 1.42 enrichment R |
| B5 | 1.04 enrichment R |
| B6 | 1.37 enrichment R |
| B7 | 1.09 enrichment R |
| B8 | 1.16 enrichment R |
| B9 | 1.44 enrichment R |
| B10 | 1.45 enrichment R |
| B11 | 0.866 enrichment R |
| B12 | 0.556 enrichment R |
| B13 | 0.963 enrichment R |
| B14 | 0.485 enrichment R |
| B15 | 0.644 enrichment R |
| B16 | 0.887 enrichment R |
| B17 | 0.981 enrichment R |
| B18 | 2.06 enrichment R |
| B19 | 0.798 enrichment R |
| B20 | 0.758 enrichment R |
| B21 | 1.8 enrichment R |
| B22 | 0.845 enrichment R |
